The chains are these.
B1: Rad50-R13A (enzyme, UniProt P12753 1-1312)
chain: MSAIYKLSIQGIASFDSNDRETIEFGKPLTLIVGMNGSGKTTIIECLKYATTGDLPPNSKGGVFIHDPKITGEKDIRAQVKLAFTSANGLNMIVTRNIQLLMKKTTTTFKTLEGQLVAINNSGDRSTLSTRSLELDAQVPLYLGVPKAILEYVIFCHQEDSLWPLSEPSNLKKKFDEIFQAMKFTKALDNLKSIKKDMSVDIKLLKQSVEHLKLDKDRSKAMKLNIHQLQTKIDQYNEEVSEIESQLNEITEKSDKLFKSNQDFQKILSKVENLKNTKLSISDQVKRLSNSIDILDLSKPDLQNLLANFSKVLMDKNNQLRDLETDISSLKDRQSSLQSLSNSLIRRQGELEAGKETYEKNRNHLSSLKEAFQHKFQGLSNIENSDMAQVNHEMSQFKAFISQDLTDTIDQFAKDIQLKETNLSDLIKSITVDSQNLEYNKKDRSKLIHDSEELAEKLKSFKSLSTQDSLNHELENLKTYKEKLQSWESENIIPKLNQKIEEKNNEMIILENQIEKFQDRIMKTNQQADLYAKLGLIKKSINTKLDELQKITEKLQNDSRIRQVFPLTQEFQRADLEMDFQKLFINMQKNIAINNKKMHELDRRYTNALYNLNTIEKDLQDNQKSKEKVIQLLSENLPEDCTIDEYNDVLEETELSYKTALENLKMHQTTLEFNRKALEIAERDSCCYLCSRKFENESFKSKLLQELKTKTDANFEKTLKDTVQNEKEYLHSLRLLEKHIITLNSINEKIDNSQKCLEKAKEETKTSKSKLDELEVDSTKLKDEKELAESEIRPLIEKFTYLEKELKDLENSSKTISEELSIYNTSEDGIQTVDELRDQQRKMNDSLRELRKTISDLQMEKDEKVRENSRMINLIKEKELTVSEIESSLTQKQNIDDSIRSKRENINDIDSRVKELEARIISLKNKKDEAQSVLDKVKNERDIQVRNKQKTVADINRLIDRFQTIYNEVVDFEAKGFDELQTTIKELELNKAQMLELKEQLDLKSNEVNEEKRKLADSNNEEKNLKQNLELIELKSQLQHIESEISRLDVQNAEAERDKYQEESLRLRTRFEKLSSENAGKLGEMKQLQNQIDSLTHQLRTDYKDIEKNYHKEWVELQTRSFVTDDIDVYSKALDSAIMKYHGLKMQDINRIIDELWKRTYSGTDIDTIKIRSDEVSSTVKGKSYNYRVVMYKQDVELDMRGRCSAGQKVLASIIIRLALSETFGANCGVIALDEPTTNLDEENIESLAKSLHNIINMRRHQKNFQLIVITHDEKFLGHMNAAAFTDHFFKVKRDDRQKSQIEWVDINRVTY
B2: Rad50-N36A (enzyme, UniProt P12753 1-1312)
chain: MSAIYKLSIQGIRSFDSNDRETIEFGKPLTLIVGMAGSGKTTIIECLKYATTGDLPPNSKGGVFIHDPKITGEKDIRAQVKLAFTSANGLNMIVTRNIQLLMKKTTTTFKTLEGQLVAINNSGDRSTLSTRSLELDAQVPLYLGVPKAILEYVIFCHQEDSLWPLSEPSNLKKKFDEIFQAMKFTKALDNLKSIKKDMSVDIKLLKQSVEHLKLDKDRSKAMKLNIHQLQTKIDQYNEEVSEIESQLNEITEKSDKLFKSNQDFQKILSKVENLKNTKLSISDQVKRLSNSIDILDLSKPDLQNLLANFSKVLMDKNNQLRDLETDISSLKDRQSSLQSLSNSLIRRQGELEAGKETYEKNRNHLSSLKEAFQHKFQGLSNIENSDMAQVNHEMSQFKAFISQDLTDTIDQFAKDIQLKETNLSDLIKSITVDSQNLEYNKKDRSKLIHDSEELAEKLKSFKSLSTQDSLNHELENLKTYKEKLQSWESENIIPKLNQKIEEKNNEMIILENQIEKFQDRIMKTNQQADLYAKLGLIKKSINTKLDELQKITEKLQNDSRIRQVFPLTQEFQRADLEMDFQKLFINMQKNIAINNKKMHELDRRYTNALYNLNTIEKDLQDNQKSKEKVIQLLSENLPEDCTIDEYNDVLEETELSYKTALENLKMHQTTLEFNRKALEIAERDSCCYLCSRKFENESFKSKLLQELKTKTDANFEKTLKDTVQNEKEYLHSLRLLEKHIITLNSINEKIDNSQKCLEKAKEETKTSKSKLDELEVDSTKLKDEKELAESEIRPLIEKFTYLEKELKDLENSSKTISEELSIYNTSEDGIQTVDELRDQQRKMNDSLRELRKTISDLQMEKDEKVRENSRMINLIKEKELTVSEIESSLTQKQNIDDSIRSKRENINDIDSRVKELEARIISLKNKKDEAQSVLDKVKNERDIQVRNKQKTVADINRLIDRFQTIYNEVVDFEAKGFDELQTTIKELELNKAQMLELKEQLDLKSNEVNEEKRKLADSNNEEKNLKQNLELIELKSQLQHIESEISRLDVQNAEAERDKYQEESLRLRTRFEKLSSENAGKLGEMKQLQNQIDSLTHQLRTDYKDIEKNYHKEWVELQTRSFVTDDIDVYSKALDSAIMKYHGLKMQDINRIIDELWKRTYSGTDIDTIKIRSDEVSSTVKGKSYNYRVVMYKQDVELDMRGRCSAGQKVLASIIIRLALSETFGANCGVIALDEPTTNLDEENIESLAKSLHNIINMRRHQKNFQLIVITHDEKFLGHMNAAAFTDHFFKVKRDDRQKSQIEWVDINRVTY
B3: Rad50-K103A K104A R1201A (enzyme, UniProt P12753 1-1312)
chain: MSAIYKLSIQGIRSFDSNDRETIEFGKPLTLIVGMNGSGKTTIIECLKYATTGDLPPNSKGGVFIHDPKITGEKDIRAQVKLAFTSANGLNMIVTRNIQLLMAATTTTFKTLEGQLVAINNSGDRSTLSTRSLELDAQVPLYLGVPKAILEYVIFCHQEDSLWPLSEPSNLKKKFDEIFQAMKFTKALDNLKSIKKDMSVDIKLLKQSVEHLKLDKDRSKAMKLNIHQLQTKIDQYNEEVSEIESQLNEITEKSDKLFKSNQDFQKILSKVENLKNTKLSISDQVKRLSNSIDILDLSKPDLQNLLANFSKVLMDKNNQLRDLETDISSLKDRQSSLQSLSNSLIRRQGELEAGKETYEKNRNHLSSLKEAFQHKFQGLSNIENSDMAQVNHEMSQFKAFISQDLTDTIDQFAKDIQLKETNLSDLIKSITVDSQNLEYNKKDRSKLIHDSEELAEKLKSFKSLSTQDSLNHELENLKTYKEKLQSWESENIIPKLNQKIEEKNNEMIILENQIEKFQDRIMKTNQQADLYAKLGLIKKSINTKLDELQKITEKLQNDSRIRQVFPLTQEFQRADLEMDFQKLFINMQKNIAINNKKMHELDRRYTNALYNLNTIEKDLQDNQKSKEKVIQLLSENLPEDCTIDEYNDVLEETELSYKTALENLKMHQTTLEFNRKALEIAERDSCCYLCSRKFENESFKSKLLQELKTKTDANFEKTLKDTVQNEKEYLHSLRLLEKHIITLNSINEKIDNSQKCLEKAKEETKTSKSKLDELEVDSTKLKDEKELAESEIRPLIEKFTYLEKELKDLENSSKTISEELSIYNTSEDGIQTVDELRDQQRKMNDSLRELRKTISDLQMEKDEKVRENSRMINLIKEKELTVSEIESSLTQKQNIDDSIRSKRENINDIDSRVKELEARIISLKNKKDEAQSVLDKVKNERDIQVRNKQKTVADINRLIDRFQTIYNEVVDFEAKGFDELQTTIKELELNKAQMLELKEQLDLKSNEVNEEKRKLADSNNEEKNLKQNLELIELKSQLQHIESEISRLDVQNAEAERDKYQEESLRLRTRFEKLSSENAGKLGEMKQLQNQIDSLTHQLRTDYKDIEKNYHKEWVELQTRSFVTDDIDVYSKALDSAIMKYHGLKMQDINRIIDELWKRTYSGTDIDTIKIRSDEVSSTVKGKSYNYRVVMYKQDVELDMAGRCSAGQKVLASIIIRLALSETFGANCGVIALDEPTTNLDEENIESLAKSLHNIINMRRHQKNFQLIVITHDEKFLGHMNAAAFTDHFFKVKRDDRQKSQIEWVDINRVTY
B4: Rad50-W1157Y (enzyme, UniProt P12753 1-1312)
chain: MSAIYKLSIQGIRSFDSNDRETIEFGKPLTLIVGMNGSGKTTIIECLKYATTGDLPPNSKGGVFIHDPKITGEKDIRAQVKLAFTSANGLNMIVTRNIQLLMKKTTTTFKTLEGQLVAINNSGDRSTLSTRSLELDAQVPLYLGVPKAILEYVIFCHQEDSLWPLSEPSNLKKKFDEIFQAMKFTKALDNLKSIKKDMSVDIKLLKQSVEHLKLDKDRSKAMKLNIHQLQTKIDQYNEEVSEIESQLNEITEKSDKLFKSNQDFQKILSKVENLKNTKLSISDQVKRLSNSIDILDLSKPDLQNLLANFSKVLMDKNNQLRDLETDISSLKDRQSSLQSLSNSLIRRQGELEAGKETYEKNRNHLSSLKEAFQHKFQGLSNIENSDMAQVNHEMSQFKAFISQDLTDTIDQFAKDIQLKETNLSDLIKSITVDSQNLEYNKKDRSKLIHDSEELAEKLKSFKSLSTQDSLNHELENLKTYKEKLQSWESENIIPKLNQKIEEKNNEMIILENQIEKFQDRIMKTNQQADLYAKLGLIKKSINTKLDELQKITEKLQNDSRIRQVFPLTQEFQRADLEMDFQKLFINMQKNIAINNKKMHELDRRYTNALYNLNTIEKDLQDNQKSKEKVIQLLSENLPEDCTIDEYNDVLEETELSYKTALENLKMHQTTLEFNRKALEIAERDSCCYLCSRKFENESFKSKLLQELKTKTDANFEKTLKDTVQNEKEYLHSLRLLEKHIITLNSINEKIDNSQKCLEKAKEETKTSKSKLDELEVDSTKLKDEKELAESEIRPLIEKFTYLEKELKDLENSSKTISEELSIYNTSEDGIQTVDELRDQQRKMNDSLRELRKTISDLQMEKDEKVRENSRMINLIKEKELTVSEIESSLTQKQNIDDSIRSKRENINDIDSRVKELEARIISLKNKKDEAQSVLDKVKNERDIQVRNKQKTVADINRLIDRFQTIYNEVVDFEAKGFDELQTTIKELELNKAQMLELKEQLDLKSNEVNEEKRKLADSNNEEKNLKQNLELIELKSQLQHIESEISRLDVQNAEAERDKYQEESLRLRTRFEKLSSENAGKLGEMKQLQNQIDSLTHQLRTDYKDIEKNYHKEWVELQTRSFVTDDIDVYSKALDSAIMKYHGLKMQDINRIIDELYKRTYSGTDIDTIKIRSDEVSSTVKGKSYNYRVVMYKQDVELDMRGRCSAGQKVLASIIIRLALSETFGANCGVIALDEPTTNLDEENIESLAKSLHNIINMRRHQKNFQLIVITHDEKFLGHMNAAAFTDHFFKVKRDDRQKSQIEWVDINRVTY

These are yes or no findings as the source states them, for the method shown. In cells and extracts the contact can be indirect. Some results given as binding are weak or reduced against the parent protein; the word gives no strength.

The target in this assay is T1, Mre11 (wild type, in S. cerevisiae cell extracts) (S. cerevisiae) (UniProt P32829).
T1 sequence: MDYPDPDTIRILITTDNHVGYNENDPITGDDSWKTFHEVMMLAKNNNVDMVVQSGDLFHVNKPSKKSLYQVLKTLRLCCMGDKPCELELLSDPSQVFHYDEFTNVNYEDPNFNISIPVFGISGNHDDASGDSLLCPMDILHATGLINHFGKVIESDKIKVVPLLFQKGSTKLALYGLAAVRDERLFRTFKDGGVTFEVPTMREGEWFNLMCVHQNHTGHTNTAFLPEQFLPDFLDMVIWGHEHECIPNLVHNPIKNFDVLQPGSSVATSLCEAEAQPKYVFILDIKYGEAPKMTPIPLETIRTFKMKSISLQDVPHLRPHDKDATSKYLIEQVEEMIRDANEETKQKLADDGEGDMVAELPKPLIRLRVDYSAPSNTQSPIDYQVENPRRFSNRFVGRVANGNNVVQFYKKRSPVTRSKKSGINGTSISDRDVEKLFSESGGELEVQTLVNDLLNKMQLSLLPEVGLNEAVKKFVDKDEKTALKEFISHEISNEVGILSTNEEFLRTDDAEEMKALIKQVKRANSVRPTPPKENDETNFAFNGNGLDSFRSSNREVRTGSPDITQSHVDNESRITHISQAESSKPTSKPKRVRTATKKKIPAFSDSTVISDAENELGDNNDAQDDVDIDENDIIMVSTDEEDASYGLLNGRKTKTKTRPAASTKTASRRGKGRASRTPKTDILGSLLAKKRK
Nature of the assay: co-IP; cells grown at 30°C or 37°C; Rad50, Mre11 or Xrs2 immunoprecipitated from cell extracts, western blot with anti-Rad50, anti-Mre11 or anti-Xrs2 antibodies. A general note: In western blotting, separated proteins are transferred to a membrane and probed.
Turning to B1, the binding result is “binds”.

Turning to B2, the binding result was “binds”.

With B3, the binding entry is “binds”.

In the case of B4, the binding entry was “binds weakly”.

These data come from paper PMC11661359, “Structure guided functional analysis of the S. cerevisiae Mre11 complex” (Research Square, 2024).
